According to PubChem BioAssay AID1466 (National Center for Advancing Translational Sciences (NCATS), 2008):
Among all 200,000 compounds or so, about 10 (0.005%) were called active. Inconclusive means that the source gave no clear call. Such entries were picked first, then a sample of the others. Calls come from the whole dose curve; as a rule, active = well fitted inhibition curve with a large enough effect; inconclusive = small, poorly fitted or top-dose-only effect, or effect the other way, or another doubt; inactive = no such curve, though single readings can be large or run the other way. Potencies of inconclusive entries are doubtful fits and often do not repeat.

Target: Lysosomal alpha-glucosidase (Homo sapiens) (UniProt P10253)
Assay: qHTS Assay for Inhibitors of Human alpha-Glucosidase as a Potential Chaperone Treatment of Pompe Disease;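 for activity change, negative = inhibition: plate controls were uninhibited enzyme wells for no effect and no-enzyme background for full effect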
Conditions: purified human GAA, 4-MU-alpha-glucoside fluorescence; activity change, negative = inhibition: at 76.9 µM (top of the series) unless noted
How it was run: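 Enzyme (4 nM final) mixed with compound (up to 77 uM), then 4-MU-alpha-D-pyranoside (400 uM final) added; 20 min at room temperature, pH 5.0. Reaction stopped at pH 10, fluorescence read, AC50 derived by Hill fit.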
Potency is the fitted concentration of half-maximal effect; tags give direction and shape of the fitted curve.

Activity change, negative = inhibition, inconclusive:
Cc1ccc(C(C(=O)NC2CCCC2)N(C(=O)Cc2cccs2)c2ccc(C)c(C)c2)o1 (stereo unspecified) -17.2% [inhibitor]
CC(=O)C1=C(O)C(=O)N(Cc2cccnc2)C1c1ccc(Cl)cc1 (stereo unspecified) -15.5% [inhibitor]
CCCCCCC(=O)Nc1ccc(C(=O)N/N=C/c2cccnc2)cc1 17.4% [activator]
COCCNC(=O)CC(=O)N/N=C/c1ccc(C(=O)OC)cc1 11.2% [activator]
CN(C)CCOC(=O)CC12CC3CC(C1)CC(CC(=O)OCCN(C)C)(C3)C2 15.9% [activator]
S=C(Nc1ccccc1)Nc1ccc(Cl)cn1 16.2% [activator]
CC(CCc1ccccc1)NC(=O)Cc1cccs1 (stereo unspecified) 14.4% [activator]
CC(=O)N1CCC(N2CCN(Cc3ccc(C)cc3)C(CCO)C2)CC1 (stereo unspecified) 16% [activator]
O=C(O)CCN1C(=O)c2ccccc2C1=O -16% [inhibitor]
COc1ccc(/C=N/NC(=O)C2COc3ccccc3O2)cc1OC (stereo unspecified) 15.4% [activator]
Cc1ccc(NC(=O)C(=O)NCC2CCN(C(=O)c3cccc([N+](=O)[O-])c3)CC2)cc1 10% [activator]

Activity change, negative = inhibition, inactive:
C[C@@H]1O[C@@H](OC[C@H]2O[C@@H](Oc3c(-c4ccc(O)c(O)c4)oc4cc(O)cc(O)c4c3=O)[C@H](O)[C@@H](O)[C@@H]2O)[C@H](O)[C@H](O)[C@H]1O -1.61% [at 15.4 µM]
CCC(=O)N(C1=C(NC)C(=O)c2ccccc2C1=O)C(C)C -4%
O=C(COC(=O)C1CC(=O)N(Cc2ccccc2)C1)Nc1ccccc1F (stereo unspecified) 6.24%
O=C(COc1ccc2ccccc2c1)Nc1nccs1 1.75%

Potency, inconclusive:
O=C(CC(=O)Nc1ccccn1)Nc1ccccn1 39.8 µM [inhibitor, single point]
Nc1ccc(-c2nc3c(Cl)cc(N)cc3[nH]2)cc1 25.1 µM [activator, partial curve]
COc1ccccc1CN1C[C@@H]2C[C@@H](c3[nH]c4c(C)cccc4c3C)N3CCC[C@@]23C1=O 35.5 µM [inhibitor, single point]
CCOC(=O)C1CCN(C(=O)c2cn(CCOC)c(=O)c3c2c2ccccc2n3C)CC1 28.2 µM [activator, single point]
COc1ccc(C(C(O)C(=O)c2c[nH]c3ccccc23)N2CCN(c3ccc(OC)cc3)CC2)cc1 (stereo unspecified) 12.6 µM [inhibitor, partial curve, poor fit]
CCCn1nc(C(=O)N2CCCc3ccccc32)c2ccccc2c1=O 11.2 µM [inhibitor, single point]
CCOC(=O)c1nn(-c2ccc(OCC)cc2)c2nc(CC(C)C)c(C#N)c(=O)n12 44.7 µM [activator, single point]
Cc1cc2ccccc2c(=O)n1CC(=O)N(C)c1ccc(F)cc1 11.2 µM [inhibitor, single point]
CCOc1ccc(NC(=O)C2CCN(c3nnnn3-c3ccccc3)CC2)cc1 14.1 µM [inhibitor, single point]
COC(=O)c1sc2ccccc2c1N 39.8 µM [activator, partial curve]
O=C(O)c1cccc(S(=O)(=O)Nc2ccc(O)cc2Sc2nc3ccccc3s2)c1 50.1 µM [inhibitor, single point]
CCC(C)(C)n1nnnc1C(c1cccc(C#N)c1)N1CCN(c2cccc(C)c2C)CC1 (stereo unspecified) 10 µM [inhibitor, single point]
O=C(NC1CCCCC1)C(c1ccc(F)cc1)N(C(=O)Cc1ccsc1)c1ccc(F)cc1 (stereo unspecified) 28.2 µM [inhibitor, single point]
c1ccc2c(c1)NC1(CCCC1)n1c-2nc2ccccc21 31.6 µM [activator, partial curve]
COc1ccc2nc(N3CCC(C)CC3)c(C#N)cc2c1 1.58 µM [inhibitor, full curve, poor fit]
CCOC(=O)c1sc2nc(C)n(CC(=O)NCC3CCCO3)c(=O)c2c1C (stereo unspecified) 11.2 µM [inhibitor, single point]
COc1cccc(-c2[nH]nc3c2C(c2ccoc2)C(C#N)=C(N)O3)c1 (stereo unspecified) 50.1 µM [inhibitor, single point]
O=C1c2cccc3cccc(c23)C(=O)N1CCN1CCN(CC(O)COCc2ccc(Cl)cc2)CC1 (stereo unspecified) 50.1 µM [inhibitor, single point]
O=C(CSc1nnc(-c2ccccc2)n1Cc1ccco1)Nc1ccc(S(=O)(=O)N2CCCC2)cc1 22.4 µM [inhibitor, partial curve]
Cn1c(=O)c(NCCc2ccccc2)c2c3c(cccc31)C(=O)c1ccccc1-2 11.2 µM [inhibitor, single point]
Cn1c(SCC(=O)Nc2ccc(N3CCOCC3)cc2)nnc1-c1ccccc1 25.1 µM [inhibitor, single point]
CC1CN(S(=O)(=O)c2ccc(NC(=O)c3cc(-c4ccccc4O)n[nH]3)cc2)CC(C)O1 (stereo unspecified) 0.891 µM [inhibitor, full curve, poor fit]
CCN1CCS/C1=C/C=C/C1=[N+](CC)CCS1 31.6 µM [inhibitor, partial curve]
Cc1ccc2nc(SCC(=O)Nc3ccc(F)cc3F)[nH]c2c1 31.6 µM [inhibitor, single point]
COC(=O)C1=CNC=C(C(=O)OC)C1c1ccccc1Cl 31.6 µM [activator, partial curve]
O=C(Cn1ncc2c(=O)oc3ccccc3c21)N(Cc1ccco1)C1CCCCC1 50.1 µM [inhibitor, single point]
